# Inconclusive results are not listed. Unless noted, calls come from the whole dose curve; as a rule, active = well fitted curve in the direction sought with a large enough effect in the repeat runs; inconclusive = weak or mixed curves; inactive = no such curve, though single readings can be large; an effect the other way counts as inactive or inconclusive. A structure can be active in one record and inactive in another. The source holds more than one record for some entries. This list holds those alone. An entry can have further records. The values listed for one entry are repeats in other runs, samples, wells, individuals or studies. What stands in brackets tells the records apart. A, B and so on number the origins entry by entry.
# Legend:
# [1] = qHTS assay for small molecules that induce genotoxicity in human embryonic kidney cells expressing luciferase-tagged ATAD5 - cell viability (AID 651634; calls by dose curve; note: nearly all actives have a fitted effect of over 25% in size)
# Outline: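 HEK293T cells carrying luciferase-tagged ATAD5, 2,000 cells/well, exposed to compound for 15.5 hr at 37C. Viability read as live-cell protease activity by CellTiter-Fluor fluorescence after 30 min at 37C.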
# [2] = A CellTox Green Cytotoxicity Assay to monitor cytotoxicity in HEK293 cells - 24 hour (AID 1224875); note: nearly all actives have a fitted effect of over 45% in size
# Outline: (§1)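 HEK293 cells, 600/well, were preincubated 5 hours and then exposed to compounds at 37 C for up to 40 hours. A cell-impermeant cyanine dye staining dead-cell DNA was read by fluorescence at 0, 8, 16, 24, 32 and 40 h time points.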
# [3] = A CellTox Green Cytotoxicity Assay to monitor cytotoxicity in HEK293 cells - 16 hour (AID 1224888); note: nearly all actives have a fitted effect of over 35% in size
# Outline: as §1
# [4] = qHTS assay to identify small molecule antagonists of the glucocorticoid receptor (GR) signaling pathway - cell viability counter screen (AID 720693); note: nearly all actives have a fitted effect of over 55% in size
# [5] = qHTS assay to identify small molecule antagonists of the androgen receptor (AR) signaling pathway using the MDA cell line - cell viability counter screen (AID 743041; note: nearly all actives have a fitted effect of over 45% in size)
# Outline: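 MDA-kb2 AR-luc cells (MMTV-luciferase, AR/GR responsive) treated with compounds plus R1881 agonist for 16 h at 37C. CellTiter-Fluor added at 15.5 h; fluorescence read after 30 min in the same wells.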
# [6] = qHTS assay to identify small molecule antagonists of the thyroid receptor (TR) signaling pathway (AID 743065); note: nearly all actives have a fitted effect of over 55% in size
# Outline: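 GH3.TRE-Luc rat pituitary cells (two TREs driving luciferase) were dosed with compound, then stimulated with 1 nM T3 (final) for 23.5 h at 37 C. ONE-Glo luminescence was the read-out, with CellTiter-Fluor fluorescence as the cytotoxicity counter-screen.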
# [7] = qHTS assay to identify small molecule antagonists of the peroxisome proliferator-activated receptor gamma (PPARg) signaling pathway - cell viability counter screen (AID 743194); note: nearly all actives have a fitted effect of over 55% in size
# Outline: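 Cytotoxicity counter screen in PPARg-bla HEK293H cells, same wells as reporter assay. Compounds plus 50 nM rosiglitazone (final) for 17 h at 37 C, then viability read by CellTiter-Glo luminescence.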
# [8] = qHTS assay to identify small molecule antagonists of the constitutive androstane receptor (CAR) signaling pathway - cell viability counter screen (AID 1224837); note: nearly all actives have a fitted effect of over 45% in size
# Outline: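 HepG2 cells stably carrying hCAR and CYP2B6-2.2kb reporter, stimulated with 50 nM CITCO and compounds at 15 concentrations for 23 h at 37 C. Viability measured by CellTiter-Fluor fluorescence.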
# [9] = qHTS assay to identify small molecule agonists of the constitutive androstane receptor (CAR) signaling pathway - cell viability counter screen (AID 1224836); note: nearly all actives have a fitted effect of over 45% in size
# Outline: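 Counter screen multiplexed with the CAR reporter readout: HepG2 cells co-transfected with hCAR and the CYP2B6-2.2kb construct receive a 15-concentration compound series and 0.75 uM PK11195 (final), then CellTiter-Fluor fluorescence is read after 23 h.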
# [10] = qHTS assay to identify small molecule antagonists of the estrogen receptor alpha (ER-alpha) signaling pathway using the BG1 cell line in the presence of 0.1 nM 17-beta-estradiol - cell viability counter screen (AID 1259241); note: nearly all actives have a fitted effect of over 40% in size
# Outline: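 The cell line endogenously expresses full-length ER-alpha and carries four EREs driving luciferase. Cells are cultured 5 days hormone-free, treated 22 hr with compounds and 0.1 nM estradiol, then viability is read by fluorescence.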
# [11] = qHTS assay to identify small molecule antagonists of the TGF-beta/Smad signaling pathway - cell viability counter screen (AID 1346824); note: nearly all actives have a fitted effect of over 50% in size
# Outline: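 SBE-bla HEK 293T cells, incubated overnight, then compound plus 0.25 ng/mL TGF-beta1 (stock added) for 5 hr at 37 C. Viability was read in the same wells by CellTiter-Glo luminescence after 30 min at room temperature.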
# Potency is the fitted concentration of half-maximal effect.
compound,measurement,setting,value
O=C1Cc2cc(CCN3CCN(c4nsc5ccccc45)CC3)c(Cl)cc2N1,Potency,[1],inactive [sample A] and active: 29.8 µM [sample B]
Oc1ccc(Cl)cc1Sc1cc(Cl)ccc1O,Potency,[2],active: 43.6 µM [sample A] and inactive [sample B]
same,Potency,[3],active: 43.6 µM [sample A] and inactive [sample B]
Cc1ccc(O)c(C(C)(C)C)c1,Potency,[1],active: 54.4 µM [sample A] and inactive [sample B]
same,Potency,[4],active: 24.5 µM [sample A] and inactive [sample B]
same,Potency,[5],active: 61 µM [sample A] and inactive [sample B]
same,Potency,[6],active: 19.3 µM [sample A] and inactive [sample B]
Oc1ccc2cc(SSc3ccc4cc(O)ccc4c3)ccc2c1,Potency,[6],inactive [sample A] and active: 61.1 µM [sample B]
same,Potency,[7],inactive [sample A] and active: 21.9 µM [sample B]
CC(C)(C)CC(C)(C)c1ccc(OCCOCC[N+](C)(C)Cc2ccccc2)cc1,Potency,[8],active: 68.5 µM [sample A] and inactive [sample B]
CCCC1O[C@@H]2C[C@H]3[C@@H]4CCC5=CC(=O)C=C[C@]5(C)[C@H]4[C@@H](O)C[C@]3(C)[C@]2(C(=O)CO)O1 (stereo partly drawn),Potency,[6],inactive [sample A] and active: 61.2 µM [sample B] and active: 48.6 µM [sample C]
CC(=O)N1CCN(c2ccc(OC[C@H]3CO[C@](Cn4ccnc4)(c4ccc(Cl)cc4Cl)O3)cc2)CC1,Potency,[1],inactive [sample A] and active: 48.6 µM [sample B]
same,Potency,[5],inactive [sample A] and active: 61.1 µM [sample B]
Clc1ccccc1C(c1ccccc1)(c1ccccc1)n1ccnc1,Potency,[1],inactive [sample A] and active: 54.5 µM [sample B]
same,Potency,[9],active: 30.6 µM [sample A] and inactive [sample B]
same,Potency,[8],active: 27.3 µM [sample A] and inactive [sample B]
same,Potency,[2],active: 49 µM [sample A] and inactive [sample B]
same,Potency,[3],active: 49 µM [sample A] and inactive [sample B]
same,Potency,[10],active: 61.1 µM [sample A] and inactive [sample B]
same,Potency,[11],active: 49 µM [sample A] and inactive [sample B]
O=C(OC[C@H]1O[C@@H](OC(=O)c2cc(O)c(O)c(OC(=O)c3cc(O)c(O)c(O)c3)c2)[C@H](OC(=O)c2cc(O)c(O)c(OC(=O)c3cc(O)c(O)c(O)c3)c2)[C@@H](OC(=O)c2cc(O)c(O)c(OC(=O)c3cc(O)c(O)c(O)c3)c2)[C@@H]1OC(=O)c1cc(O)c(O)c(OC(=O)c2cc(O)c(O)c(O)c2)c1)c1cc(O)c(O)c(OC(=O)c2cc(O)c(O)c(O)c2)c1,Potency,[1],active: 9.44 µM [sample A] and inactive [sample B]
CC[C@H](c1ccc(O)cc1)[C@@H](CC)c1ccc(O)cc1,Potency,[4],inactive [sample A] and active: 49 µM [sample B]
same,Potency,[7],active: 38.9 µM [sample A] and inactive [sample B]

# From PubChem BioAssay (Tox21)
